# The supplement of paper PMC11417369
# ± gives the standard deviation of the averaged measurements. This is one part of the list.
# System: PfAP2-G AP2 domain (GST-tagged)
# Test: gcPBM binding intensity (ln(normalized median fluorescence intensity)); higher = stronger DNA binding
# Method in brief: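 Binding intensity is the highest Masliner-normalised natural-log median intensity over replicate spots in either probe orientation. To obtain it, GST-tagged P. falciparum DNA-binding domains made in E. coli were incubated for 1 h on an Agilent 4 × 180k array of primer-extended double-stranded 36-bp intergenic genomic probes plus negative controls. Detection used Alexa488 anti-GST antibody with scanning at 488 nm.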
row,Sequence,gcPBM binding intensity (ln)
1,ATATTTACAAGTAATAGTACAGTTAATTATATAAAA [XGTACX_site4856],11.2 ± 0.95
2,ATTATATAGCTAAAAAAAATAAATTAAAAATATTAA [TGCATGCA_negctrl_site505],9.53 ± 0.042
3,TACTTGTTATTAACATGTACAAAAAAAAAAAAAATT [XGTACX_site1338],10.8 ± 0.53
4,AAACAATATTCTCAAGTGCAAAAAGAAAAAAGAAAT,9.95 ± 0.11
5,TTTATTTTTATTTAAAGTACATATCCATTTATTCCT [XGTACX_site1914],11.2 ± 0.7
6,ATAGGATGCATATGAGTGCATTCTGTGTTGTTATAA,9.885 ± 0.007
7,AGATTAAAATATATACGTACATATTATTAATTAATA [XGTACX_site3487],11.5 ± 0.86
8,AATGTACCCACACCCACACACAAACAAATATATATA [CACACA_site2751],11.3 ± 0.95
9,TAATGTATTATATTTTGTTTTCTTCCACCAAAAAAA [XGTACX_negctrl_site64],10.3 ± 0.49
10,AAAAAAAAAATTAAATGTACACACACCTTAAACAAT [XGTACX_site3848],11.4 ± 0.74
11,ATTTTCTTATATATATTTTGTATATATTTTGTACAT [CACACA_negctrl_site1496],10.5 ± 0.39
12,ACCCATATAATATATACACACATATATATATATATA [CACACA_site4731],10.1 ± 0.18
13,TCTCATAGTAGACACACACACACACGCACATATATA [CACACA_site6916],10.4 ± 0.22
14,TATGTATGTGCTTGTGCGCACCGATAATATAGCCAA,10.5 ± 0.31
15,TGCTATAATTTATATACACACAAATATATACGCATA [CACACA_site4096],10 ± 0.14
16,ACATAAGACACAAATACACACAAAAATATGTAACAA [CACACA_site7836],10.2 ± 0.21
17,TTTTATGAAAAGTATTGTACGTATAATTTATATGTA [XGTACX_site1639],11.6 ± 1.1
18,TATATAAATAGACACACACACACCTTATAATTACTA [CACACA_site7828],10.1 ± 0.16
19,GAAGAAAAATAAAAAGTGCAAAAAAAGTAAAAATTT [GTGCAC_site9897],10.11 ± 0.078
20,ATAATAATTAACCTATGTACATAGGAAAGTCATAAA [XGTACX_site4387],10.9 ± 0.47
21,AAAAAAAAAAAACACACACACACATACACATACATA [CACACA_site2858],10.09 ± 0.099
22,TCCATATATGCCTTATGTACATATACCAAATTAACC [XGTACX_site6513],11.3 ± 0.75
23,TTTGGCTAGTTAGGCCGTACATGTAAATAATATATA [XGTACX_site1138],10.9 ± 0.64

row,Sequence,gcPBM binding intensity (ln)
1,GAAGTTTTTTAAAGATGTACTTTTTAAAAATAATCT [XGTACX_site263],11.5 ± 0.93
2,AATGAATGTAAGAAAATACACACTAGTATAGTAACA [CACACA_site1955],10.29 ± 0.092
3,TTGGAAAAAGTGAAATGTACATATATATTTATTATT [XGTACX_site6946],11 ± 0.36
4,AAAGGATTTATACTAGTGCAAAAATATAAAAATATA,9.87 ± 0.085
5,AATAATAAAGTGAACACACACATATAACATCTATAT [CACACA_site7868],10.04 ± 0.099
6,TTTGTTTTTAATTTCGCACACACCTTGTGGAAAAAA [CACACA_site577],10.3 ± 0.4
7,AAATATTTTATACTTGCACACAAAATATATTAAAAT [CACACA_site8606],10.2 ± 0.2
8,AATATAAATACTCCTACACACATATATATATATATA [CACACA_site3010],10.4 ± 0.36
9,GACACAAAAAAATAATAATAATAATAATAATAAATA [XGTACX_negctrl_site145],9.66 ± 0.12
10,ACAAATACAAAAAAAGGTACACACATAATATATTTA [XGTACX_site5515],11.4 ± 1
11,TGTGTAAGATCTTGGATGATGATAAGAATCTACTAG [CACACA_negctrl_site1167],9.7 ± 0.33
12,TTATAAGATTTATGTACACACATATACTCACCTCTA [CACACA_site729],11.5 ± 0.93
13,CCTTAAAATAAGATATGTACGCAAAGGAAAACAAAG [XGTACX_site6057],11.5 ± 0.85
14,TTCTTATAAATATACACACACAAAATATCTACAATG [CACACA_site6487],10.11 ± 0.078
15,AAGTTGAAATAATGTGCACACATTTTTTTTTTTTTT [CACACA_site3368],10.5 ± 0.3
16,CCCTTAATATAAAGCACACATATATATAATATATAT [CACACA_site4439],10.1 ± 0.23
17,ATTTTTATTCAGTTCACACACGCTTTAATATTATAT [CACACA_site3465],10.21 ± 0.085
18,ATATATATTTAACAATGTACTTATTCAGAGAATAAT [XGTACX_site574],11.1 ± 0.83
19,AAAATATTTTTATAATGTACATATAGTTGTATTTGT [XGTACX_site8724],11.2 ± 0.53
20,ATTAATAAAAAATTTTAAAAAATAAATAAAATAAAA [TGCATGCA_negctrl_site113],9.61 ± 0.071
21,ATAATAAATAAAATAACACACATATATAAATATATA [CACACA_site170],9.66 ± 0.042
22,CATATTTGTGGACACACACACATATTTATATATATA [CACACA_site5887],11.5 ± 0.95
23,ATAGTTACACAATGGTGTACAAGTCAATATATTTCT [XGTACX_site4614],11.3 ± 0.81

row,Sequence,gcPBM binding intensity (ln)
1,TACAAAAAAATAAAAAAAATTAAATAAATAAATATA [CACACA_negctrl_site45],9.35 ± 0.15
2,ATTATGTGTCCACATGTAAGCTATCTTACTTATATA [CACACA_negctrl_site1227],11.2 ± 0.93
3,ATAATAAAATAACTAGTGCATATTCAAAGGATTCAG,10.03 ± 0.014
4,TATCCTTATATTTGCACACACACACTAGAAAATGAA [CACACA_site4714],10.3 ± 0.33
5,AAAAAAAAAAAAAAAAAAAACGAAAAACATCAAAGA [TGCATGCA_negctrl_site78],10.8 ± 0.49
6,ACTAAAAAATATATATGTACATAATAATATATTATT [XGTACX_site1260],11.2 ± 0.57
7,ATTTATACTTATGTATGTACATATATACATATGTAT [XGTACX_site3979],11.1 ± 0.61
8,ATATATATTATATATAGTACTTTTTTGCGCAAATAT [XGTACX_site6849],11.1 ± 0.61
9,AACACATGCTTGGTCACACACGTATGCATATTTAAA [CACACA_site5206],10.8 ± 0.35
10,AATATGTTATAAATATGTTATAAATAATAAATAAAT [GTGCAC_negctrl_site135],10 ± 0.11
11,ATATATATATATAATTGTACATATAATATAATATTA [XGTACX_site5216],11 ± 0.55
12,ATTTTTTTTTTTTTATGTACATATAGGTGCAAATCA [XGTACX_site6748],11.4 ± 0.83
13,ACAATGTCATTTGCTAGTACGCATATTGGTTGTAAA [XGTACX_site8924],11.4 ± 0.95
14,TATTTTTTTTTTTTTTTTTTTTTAAAACATATCAAT [CACACA_negctrl_site925],9.77 ± 0.18
15,GAAATTTGTTATTGCACACAAATTTTTCTTTTTTTA [CACACA_site2339],9.93 ± 0.16
16,TAATTATATATATACACACACATACAGACAAATAAA [CACACA_site3412],10.4 ± 0.29
17,TACCATATTTCTTCAAGTACGCATTATGTTAAAAAG [XGTACX_site345],11.3 ± 0.84
18,TACATATATTTTTATACATGCATAACTTAGGACTTT [TGCATGCA_site113],9.855 ± 0.064
19,ATATTTATATATATCATACACACTAATATGTATATT [CACACA_site3409],9.865 ± 0.007
20,TCCTTTTTGAAATGTTGTACTTTTTTTATCTTTCAT [XGTACX_site953],11.5 ± 0.67
21,TTTTTTTAATAGTGTGCACACAATATACAGAAAAAA [CACACA_site8399],10.7 ± 0.49
22,GCAATTTTTTTTAAGAGTACTAATATATTATAGTGG [XGTACX_site7316],11.1 ± 0.81
23,ATATATATATATATATGTACATATGTTTGTTTCCGC [XGTACX_site5167],11.1 ± 0.83

row,Sequence,gcPBM binding intensity (ln)
1,CATACATACATACATACATGCATACATACATACATA [TGCATGCA_site218],10.5 ± 0.47
2,CATAATTTAAAAAAGGTGCAAAATGGATAATATATA [GTGCAC_site9657],10.4 ± 0.2
3,TTTTTTTTCATTTTATGTACACATAATTTAATATAT [XGTACX_site5768],11.6 ± 0.93
4,AAAAAGTGACTCCTTACACACTTTACATAATTTAGG [CACACA_site8176],10.2 ± 0.19
5,ATATACATATATATATGTACTTATTTATTTATTTAT [XGTACX_site2532],11.3 ± 0.84
6,AAAAAAATTAAAAATTAAAATTAAAAATAATATATA [GTGCAC_negctrl_site466],9.32 ± 0.14
7,AATGTATAAATCCATACACACATAAATTTTAATAAT [CACACA_site2363],9.99 ± 0.16
8,TAATTTCTTTAGGGGGTGCTTTTATAGTTTTTATTA,11.2 ± 0.64
9,TTCATAAAATGTGTCTGTACGTAAATGTATTACACT [XGTACX_site3179],11.5 ± 0.74
10,CTGTCTGCAGATATGGTGCATTTGTAAGATCTTACA [GTGCAC_site9870],10.11 ± 0.092
11,TTTATATTTATGATGGGTACACAAAATTTTACCCAT [XGTACX_site1504],11.6 ± 0.93
12,TTTAGTTGTGAGAATTGTACATATTTTCCTTTTACC [XGTACX_site7291],11 ± 0.67
13,TATATACCTATATACACACACATATATTATAGATAT [CACACA_site6266],9.895 ± 0.064
14,AACATTATATATTGCAGTACTCCCATATGTTGATAA [XGTACX_site3119],11.2 ± 0.81
15,ATATATATATATATATGTACACATAAAAAGAAAGAA [XGTACX_site1603],11.7 ± 1.1
16,GATCTATACTATAATACACACATTTGATGAATGTAA [CACACA_site6163],9.96 ± 0.099
17,TATATATATGAACAATGTACGTATAATATTTTTATT [XGTACX_site7561],11.3 ± 0.76
18,ATTAAAAAAAATATATATGTATAAAACAAGCAAAAT [XGTACX_negctrl_site474],9.86 ± 0.028
19,TACACAAACAAACACACACACACACCCCCACAAAAA [CACACA_site2428],11 ± 0.53
20,GACCACTTTAGGATTTGTACACATATTATATATGCA [XGTACX_site6579],11.3 ± 0.84
